Results published in PubChem BioAssay AID488969 (Vanderbilt High Throughput Screening Facility, 2010).
In all, about 110,000 compounds were measured (“z-score”: median about -0.1, highest 2% from about 2 on). This is one part of the list. Activity calls are given as the source filed them.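 The calls were made as follows: active = z-score in the third read window above 3 or below -3; inactive = the rest.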

Molecular target: Metabotropic glutamate receptor 8 (Rattus norvegicus) (UniProt P70579)
Test: mGluR8 Gi/Go-coupled signaling modulation – cell-based, rat, thallium flux, HTS, primary screen (AID 488969)
Conditions: HEK293 rat mGluR8, GIRK (G protein-gated inwardly rectifying potassium channel) thallium flux, FluoZin2; at 10 µM; stronger effect = higher value; submaximal glutamate (EC20) added with thallium

Chain of UniProt P70579 (P70579 whole entry, looked up): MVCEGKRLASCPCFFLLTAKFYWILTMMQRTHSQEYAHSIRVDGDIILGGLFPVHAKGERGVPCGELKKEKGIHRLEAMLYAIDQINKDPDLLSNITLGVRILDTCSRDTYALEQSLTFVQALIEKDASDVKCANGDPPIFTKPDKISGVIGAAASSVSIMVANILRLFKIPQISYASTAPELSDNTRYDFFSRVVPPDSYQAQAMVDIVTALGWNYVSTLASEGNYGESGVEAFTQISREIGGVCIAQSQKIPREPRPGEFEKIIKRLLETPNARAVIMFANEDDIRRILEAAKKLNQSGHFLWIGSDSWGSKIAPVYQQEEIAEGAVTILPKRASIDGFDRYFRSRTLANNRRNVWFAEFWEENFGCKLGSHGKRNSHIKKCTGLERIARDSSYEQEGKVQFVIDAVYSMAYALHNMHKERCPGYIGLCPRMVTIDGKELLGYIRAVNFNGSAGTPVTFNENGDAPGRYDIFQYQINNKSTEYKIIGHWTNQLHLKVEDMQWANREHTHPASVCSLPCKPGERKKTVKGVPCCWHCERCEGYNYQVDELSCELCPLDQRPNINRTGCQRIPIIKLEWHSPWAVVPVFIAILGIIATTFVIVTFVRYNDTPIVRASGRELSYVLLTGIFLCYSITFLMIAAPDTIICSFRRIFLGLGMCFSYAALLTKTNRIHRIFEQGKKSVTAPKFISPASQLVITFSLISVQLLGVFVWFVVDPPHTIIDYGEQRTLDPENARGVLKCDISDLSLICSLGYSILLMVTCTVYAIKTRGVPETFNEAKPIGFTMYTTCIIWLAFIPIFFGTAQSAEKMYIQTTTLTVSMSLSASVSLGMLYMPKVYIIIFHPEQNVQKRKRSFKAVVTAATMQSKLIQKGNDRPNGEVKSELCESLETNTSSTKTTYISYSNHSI

Row | SMILES | z-score
1 | COC(=O)c1ccc(-c2ccc(/C=N/N3C(=O)C4C5C=CC(C6CC56)C4C3=O)o2)cc1 (centres undefined) | -0.269
2 | O=[N+]([O-])c1ccc(OCc2cccc(COc3ccc([N+](=O)[O-])cc3)n2)cc1 | 0.233
3 | CCCCN1C2=NCCCN2c2cc(C)c(C)cc21 | 1.11
4 | COc1ccc(OC)c(NC(=O)CCC(=O)Nc2nnc(C(F)(F)F)s2)c1 | 0.644
5 | Cn1cnnc1SCC(=O)NCCc1ccccc1 | 0.161
6 | CCCC1CCc2c(sc(N)c2C(N)=O)C1 (centres undefined) | -0.21
7 | Cc1ccc(CN(Cc2ccc(C)o2)C(=S)NCC(=O)O)cc1 | -0.00212
8 | O=C(CCN1CCc2ccccc21)c1ccc2c(c1)OCCO2 | -0.0938
9 | CC(NC(=O)c1ccc(F)cc1)c1ccccc1 (centres undefined) | -0.251
10 | CCOC(=O)c1c(CN2CCN(CCO)CC2)n(C)c2cc(Br)c(OC)cc12 | 0.864
11 | CC(Oc1ccc2oc(-c3ccccc3)c(C(=O)O)c2c1)C(=O)O (centres undefined) | 0.411
12 | COc1ccc(-c2c(C)nn(-c3ccccc3)c2N)cc1 | -0.173
13 | COc1ccc(C(=O)N/C(=C\c2ccccc2)C(=O)NC(CCSC)C(=O)O)cc1 (centres undefined) | -0.0411
14 | CCc1nnc(NC(=O)CCN(c2cc(C)cc(C)c2)S(=O)(=O)c2ccc(Cl)cc2)s1 | -0.0322
15 | CS(=O)(=O)N(CCc1ccccc1)CC(=O)NCC1CCCO1 (centres undefined) | -0.312
16 | CCCc1nnc2c(N(C)S(=O)(=O)c3ccccc3)nc3ccccc3n12 | -0.163
17 | CC1CCN(C(=O)/C=C/c2ccc(C(C)(C)C)cc2)CC1 | -0.493
18 | Cc1ccc(N=CC2=C(O)CC(c3ccco3)CC2=O)cc1 (centres undefined) | -0.179
19 | O=C1N=C(N2CCN(c3ccccc3)CC2)S/C1=C\c1cn[nH]c1-c1ccccc1 | -0.34
20 | CCNC(=O)Nn1c(-c2ccccc2)nc2ccccc2c1=O | 0.247
21 | O=C(COC(=O)[C@H](Cc1ccccc1)NC(=O)c1cccs1)Nc1c(Cl)cccc1Cl | -0.462
22 | C=CCNC(=O)c1ccccc1NC(=O)Cc1ccccc1[N+](=O)[O-] | -0.473

Row | SMILES | z-score
23 | O=C(O)CCCNS(=O)(=O)c1cccs1 | 0.143
24 | Cc1nc(SCC(=O)NCc2ccc3c(c2)OCO3)c(C#N)c2c1CCCC2 | -0.601
25 | CCOCCSc1nc2c(c(=O)[nH]c(=O)n2C)n1CCCc1ccccc1 | -0.352
26 | Cc1ccc(-c2nc3ccccc3c(=O)n2CCCn2ccnc2)cc1 | 0.126
27 | COC(=O)Cc1c(C)nc2nc(Cc3ccccc3)[nH]n2c1=O | -1.79
28 | O=C(c1ccc2nc(N3CCOCC3)sc2c1)N1CCC(Cc2ccccc2)CC1 | -0.938
29 | Cn1nnnc1SCC(=O)NC(C)(C)C | 1.31
30 | COc1c(Cl)cc(Cl)cc1C(=O)Nc1ccccc1N1CCN(C(C)=O)CC1 | -0.00567
31 | O=C1CSC(c2cn(-c3ccccc3)nc2-c2cccs2)N1CC1CCCO1 (centres undefined) | -0.387
32 | CC1(C)CC(=O)C(C=Nc2ccccc2C(=O)O)=C(O)C1 | 0.324
33 | CCCCc1nc(NCc2ccccc2)c(C#N)c2c1CCCC2 | -0.231
34 | COC(=O)CCC(=O)Nc1nnc(C(F)(F)F)s1 | -0.0801
35 | O=C(c1cc2c(s1)-c1ccccc1OC2)N1CCN(c2ccccc2)CC1 | 0.106
36 | CN(CCOC(=O)/C=C/c1ccccc1)C(C)(C)C | 0.0413
37 | S=C(Nc1ccc(Cl)cc1)N1CCCCC1 | -0.262
38 | Cc1ccc(OCCCSc2ncccn2)cc1C | -0.106
39 | O=C(COC(=O)C1CC2C=CC1C2)Nc1ccc2c(c1)OC(F)(F)O2 (centres undefined) | active: 4.04
40 | O=C(Nc1ccc(Cl)c(Cl)c1)OCc1cccnc1 | -0.347
41 | CCCN(CCC)C(=O)NC1CC(=O)N(c2ccc(OC)cc2)C1 (centres undefined) | 0.107
42 | O=C(NCCc1ccc(Cl)cc1)C1CCCN(S(=O)(=O)c2cnc[nH]2)C1 (centres undefined) | 0.0211
43 | COc1ccc(CCNC(=O)NC2CCCCC2)cc1 | -0.00915
44 | Cc1ccc(C(=O)/C=C/c2cn(CN3CCN(C)CC3)c3ccccc23)cc1 | 0.255

Row | SMILES | z-score
45 | COc1ccccc1CNC(=O)CN1CCC(NC(=O)c2ccccc2F)CC1 | 0.265
46 | COCCNC(=O)C1CCC(Cn2c(=S)[nH]c3ccccc3c2=O)CC1 (centres undefined) | 0.464
47 | COc1ccc(CCN2C(=O)CC(NNC(=O)c3ccccc3Br)C2=O)cc1 (centres undefined) | -0.244
48 | O=C(Nc1cccnc1)c1sc(Nc2ccccc2)nc1-c1ccccc1 | -0.378
49 | Cc1c(NC(=O)C(C)Sc2n[nH]c(N)n2)c(=O)n(-c2ccccc2)n1C (centres undefined) | 0.933
50 | Cc1cc(C)n(-c2nc(C)nc(NCc3ccccc3)n2)n1 | -0.403
51 | O=C(NCn1ccc(=O)[nH]c1=S)c1ccccc1 | -0.0301
52 | CC(c1ccccc1)n1cc(C(=O)NCC2COc3ccccc3O2)nn1 (centres undefined) | 0.0508
53 | CCOc1ccc2[nH]c(=O)c(=O)[nH]c2c1 | 0.191
54 | O=C(Nc1ccc(Cl)cc1)N1CCN(c2ccccc2)CC1 | -0.94
55 | Cc1cccc(C)c1NC(=S)N/N=C/c1ccc(OCCC(C)C)cc1 | 0.00798
56 | O=C(NCc1ccc2c(c1)OCO2)C1CCCN(S(=O)(=O)c2cccc3nonc23)C1 (centres undefined) | 0.401
57 | COc1ccccc1-c1n[nH]c2c1[C@H](C)CC[C@H]2C(C)C | -0.485
58 | O=S1(=O)N=C(N2CCCc3ccccc32)c2ccccc21 | -0.336
59 | COc1ccc(/C=N/Nc2c(Cl)cc(Cl)cc2Cl)cc1CN1CCOCC1 | 0.343
60 | O=C(COc1ccccc1)NCC(=O)Nc1ccc(S(=O)(=O)NCc2ccco2)cc1 | -0.311
61 | O=C1[C@@H]2C(Cc3ccc(O)cc3)NC3(C(=O)Nc4ccc(F)cc43)[C@@H]2C(=O)N1c1ccc(F)cc1 (some centres undefined) | 1.2
62 | CCC(C)(C)NC(=O)CN(Cc1cccs1)C(=O)C(=O)Nc1ccc2c(c1)OCCO2 | -0.0844
63 | CC(C)[C@H](NC(=O)c1ccc(Cl)c([N+](=O)[O-])c1)C(=O)NCc1ccc(F)cc1 | 0.57
64 | CCOC(=O)C1CCN(S(=O)(=O)c2cccc(-c3cn4cc(C)ccc4n3)c2)CC1 | -0.0133
65 | CCOC(=O)C1=C(C)Nc2nc(SCC)[nH]c(=O)c2C1c1ccncc1 (centres undefined) | 0.799
66 | Clc1ccc2noc(-c3ccccc3)c2c1 | -0.0958

Row | SMILES | z-score
67 | CCCCOc1ccc(/C=C/C(=O)Nc2ccc(C(N)=O)cc2)cc1 | -0.626
68 | CCC(C)(C)NC(=O)C(c1cccn1C)N(C(=O)Cn1nnc2ccccc21)c1ccc(OC)cc1OC (centres undefined) | -0.0483
69 | CC(C)(C)NC(=O)Cn1c(-c2nonc2N)nc2ccccc21 | 0.105
70 | COC(=O)/C=c1/sc2n(c1=O)CCN=2 | 0.679
71 | Cc1ccc(Cn2nnc3c(=O)[nH]c(C4CCN(S(=O)(=O)c5cc(C)ccc5C)CC4)nc32)cc1 | 0.616
72 | CC(Nc1cccc2ccccc12)C(=O)N/N=C/c1ccc([N+](=O)[O-])cc1 (centres undefined) | -0.0998
73 | Cc1cccc(NC(=S)N/N=C/c2ccc(Cl)c([N+](=O)[O-])c2)c1 | 0.0887
74 | O=C(CSc1nnc(-c2ccc(OC(F)F)cc2)o1)N1CCOCC1 | 0.102
75 | Fc1ccc(CSc2nnc(-c3cnccn3)n2Cc2ccco2)cc1 | -1.29
76 | Cc1nn(C)c(C(=O)N/N=C/c2ccc(C(F)(F)F)cc2)c1[N+](=O)[O-] | -0.463
77 | O=C(CNC(=O)C(c1ccccc1)c1ccccc1)OCC(=O)c1cccs1 | -0.0213
78 | COc1ccc(S(=O)(=O)NCCSC(C)(C)C)cc1 | -0.349
79 | COc1cccc(-c2ccc(=O)n(CC(=O)Nc3cc4c(cc3NC(C)=O)OCCO4)n2)c1 | 2.05
80 | Cc1ccc2c(c1)-c1c(cnn1CC(=O)NC(C)CCc1ccco1)CO2 (centres undefined) | -0.697
81 | CCOc1ccc(/C=N/OC(C)C(=O)NCc2ccc3c(c2)OCO3)cc1 (centres undefined) | 0.0552
82 | Cc1cc([N+](=O)[O-])nn1CC(=O)NCc1ccco1 | -0.13
83 | CCN(CC)CCCNC(=O)c1ccc(Cl)c(S(=O)(=O)Nc2ccccc2OC)c1 | -0.0127
84 | COC(=O)C1=C(CN2CCc3ccccc32)NC(=O)NC1c1cc(C)ccc1C (centres undefined) | -0.386
85 | COc1cccc(C2C(C(=O)Nc3cccnc3)=C(C)Nc3nnnn32)c1OC (centres undefined) | -0.18
86 | Cn1ncc(Br)c1C(=O)N1CCN(C(=O)c2ccco2)CC1 | -0.124
87 | c1cncc(-c2nc3ccccc3o2)c1 | -0.0182
88 | Cc1cc(-n2c(C)cc(C(=O)CN3C(=O)NC4(CCCCC4)C3=O)c2C)no1 | -0.183

Row | SMILES | z-score
89 | Cc1ccc(CNC(=O)CCNC(=O)Cn2ccc3ccccc3c2=O)cc1 | -0.213
90 | CC(C)(O)/C=C1/Oc2ccccc2C1N1CCCCC1 (centres undefined) | -0.131
91 | Nn1c(SCC(=O)Nc2ccc3c(c2)OCO3)nnc1-c1ccccc1 | 0.129
92 | CCCCn1c(O)c(N=NC(=O)Cn2c(C(F)(F)F)nc3ccccc32)c2ccccc21 | 0.194
93 | O=C(NCC1CCCO1)c1onc(CSc2ccccc2F)c1C(=O)O (centres undefined) | -1.59
94 | Cc1ccc(-c2noc(-c3ccccc3C(=O)N3CCN(C)CC3)n2)cc1 | -0.225
95 | CN(C(=O)c1ccno1)c1nnc(-c2cnccn2)s1 | 0.53
96 | CCOC(=O)c1c(NC(=O)c2cccs2)sc(CC)c1-c1cccs1 | -0.275
97 | CN(C)CCCNC(=O)c1ccc(Cl)c(S(=O)(=O)N(C)c2ccccc2)c1 | -0.583
98 | O=C(CN1CCN(C2CCCCC2)CC1)NCCC1=CCCCC1 | 0.393
99 | O=C(c1cccs1)N1CCN(Cc2ccc3c(c2)OCO3)CC1 | -0.063
100 | Cn1cc(Br)c(C(=O)NNC(=O)c2cccc(Br)c2)n1 | 0.0308
101 | COc1ccc(C(=O)N2CCCc3ccccc32)cc1 | -0.672
102 | COc1cc(C(=O)NCc2nnc(SCC(=O)N3CCCCC3)o2)cc(OC)c1OC | -0.341
103 | CCN(CC)C(=O)c1sc(NC(=O)Cc2ccccc2)c(C#N)c1C | -0.357
104 | COc1ccc(NC(=O)C2=C(C)Nc3ncnn3C2c2ccccc2C(F)(F)F)c(OC)c1 (centres undefined) | -0.222
105 | Cn1c(=O)[nH]c(=O)c2c1nc(N1CCNCC1)n2Cc1cccc2ccccc12 | 1.21
106 | C=CCn1c(P(C)(=O)O)nc2ccccc21 | -0.176
107 | CCNC(=O)NC(=O)C(C)OC(=O)c1oc2ccc(OC)cc2c1C (centres undefined) | -0.0656
108 | O=C(Nc1ccccc1-c1ccccc1)c1cccc(C(F)(F)F)c1 | 0.264
109 | CCCS(=O)(=O)N1CCN(C(=O)c2ccc(-c3ccccc3)cc2)CC1 | -0.357
